# Reference: ChEMBL document CHEMBL1201862, “PubChem BioAssay data set” (2004)
# Tested on: NCI-H322M
# Assay: NCI anticancer screen, dose series, 48 h
row,Compound,GI50
1,NC(CCC(=O)NC(CSC(=O)N(O)c1ccc(Cl)cc1)C(=O)NCC(=O)O)C(=O)O (configuration not stated),active: > 0.5 µM
2,O=C(CCn1ccnc1[N+](=O)[O-])NCCCn1ccnc1[N+](=O)[O-],inactive: > 100 µM
3,CC(C)(C)CC(C)(C)c1cc(O)c(O)c(CN2CCCCC2)c1,inactive: 15.8 µM
4,CCOC(=O)CCc1c(C)c2ccc(O)cc2oc1=O,inactive: > 100 µM
5,COc1ccccc1NC(=O)C1=C(C)NC(C)=C(C(=O)Nc2ccccc2OC)C1c1ccc(N(C)C)cc1,inactive: 38.9 µM
6,CC(C)(CC(=O)Nc1ccccc1)C(=O)O,inactive: > 100 µM
7,COc1ccc(-c2onc(-c3c(C)cc(C)cc3C)c2C2=NCCCN2)cc1,inactive: 46.1 µM
8,O/N=C(\c1nc2ccc(Cl)cc2nc1O)C(O)c1ccc(Cl)cc1Cl (configuration not stated),inactive: > 100 µM
9,COc1ccc(NC2C(=O)C3(C)CCC2C3(C)C)cc1 (configuration not stated),inactive: > 100 µM
10,COC1(c2cccs2)c2ccccc2C(OC)(c2cccs2)c2ccccc21 (configuration not stated),inactive: 40.7 µM
11,CC(C)/C(Cl)=N/OC(=O)Nc1ccc(Cl)c(Cl)c1,inactive: 16.1 µM
12,O=C(c1ccccc1)n1c(Cc2ccccc2)nc2cc(C34CC5CC(CC(C5)C3)C4)ccc21,inactive: > 100 µM
13,N#CC1CCCCCCCCCCC(=O)N(CCCl)C1=O (configuration not stated),inactive: > 100 µM
14,CSC1=Nc2ccccc2N(C)c2c1c(-c1ccccc1)nn2C,inactive: 84.5 µM
15,c1ccc(NN=C(c2ccccn2)c2ccccn2)nc1,active: 0.345 µM
16,COC(=O)[C@@H]1[C@@H]2NC(=S)N[C@@]1(C)Oc1ccccc12,inactive: 37 µM
17,COc1cc2c(cc1OC)CC(=O)Nc1cc(OC)c(OC)cc1CC2,inactive: 52.4 µM
18,C/C(=N\NC(=S)NCCNC(=S)N/N=C(\C)c1ccccn1)c1ccccn1,inactive: 2.44 µM
19,O=C(CCC(=O)C(C(=O)c1ccccc1)c1ccccc1)Nc1cccc(C(F)(F)F)c1 (configuration not stated),inactive: > 100 µM
20,CC(=O)c1cn(-c2ccc(Cl)cc2)c(=O)c2c(N)n[nH]c12,inactive: > 100 µM
21,Cc1nnc2cc(C(=O)O)c3ccccc3n2c1=O,inactive: > 10 µM
22,COc1ccc2c(c1)CC[C@@H]1[C@@H]2CC[C@]2(C)C(=O)/C(=C/c3ccc(O)c(OC)c3)C[C@@H]12,inactive: > 100 µM
23,CCOC(=O)CCc1cn2cc(Br)nc(OC)c2n1,inactive: > 100 µM

row,Compound,GI50
1,Oc1ccc2ccccc2c1NCn1nc(CCCCCCCCc2nn(CNc3c(O)ccc4ccccc34)c(=S)o2)oc1=S,inactive: > 100 µM
2,O=C(O)Cc1cc(=O)[nH]c2c1/C(=N/O)CCC2,inactive: > 100 µM
3,C/C(CC(=O)Nc1cccc([N+](=O)[O-])c1)=N\NC(=O)CC#N,inactive: > 100 µM
4,Cc1nc2ccccc2[nH]/c1=N/Nc1ccccc1,inactive: 25.2 µM
5,C(=N/c1ccccc1C1SCCCS1)/c1ccccc1,inactive: > 100 µM
6,CNS(=O)(=O)NN(C)S(=O)(=O)c1ccc(Cl)cc1,inactive: > 100 µM
7,COc1ccc(OC)c([N+](=O)[O-])c1-c1nc2sc(C)cn2c1/C=N/N=C(N)N,inactive: 13.6 µM
8,COc1ccc(/C=C/C(=O)Oc2cc(O)cc(O)c2)cc1,inactive: > 100 µM
9,CCCSc1ccc2[nH]c(/N=C/c3ccco3)cc2c1,inactive: 31.5 µM
10,COC(=O)CCc1cc(OC)c(O)c(C(Cc2ccc(OC)c(OC)c2)C(=O)OC)c1 (configuration not stated),inactive: > 100 µM
11,O=[N+]([O-])C(C(Cl)=C(Cl)Cl)=C(n1cncn1)n1cncn1,inactive: > 84.1 µM
12,C[C@]12CCC(=O)C=C1CC[C@@H]1[C@@H]2[C@@H](O)C[C@@]2(C)[C@H]1CC[C@]2(O)C(=O)COC(=O)C1CCCC1,inactive: > 100 µM
13,CCOC(=O)/C(C#N)=C(N)/C(=N\Nc1cccc(C(F)(F)F)c1)C(=O)OCC,inactive: > 100 µM
14,N#C/C(=C/c1ccc[nH]1)P(=O)(O)O,inactive: > 100 µM
15,Cc1cc(C)nc(NS(=O)(=O)c2ccc(NNc3c4ccccc4nc4c(C(=O)Nc5ccc(S(=O)(=O)N=C(N)N)cc5)cccc34)cc2)n1,inactive: 29.9 µM
16,C=C1[C@@H]2CCC3[C@]4(C)C(CC[C@@]5(C)C(=O)O[C@H](O)[C@@H]45)[C@H](O)[C@]3(C2)[C@H]1OC1OC(CO)C(O)C(O)C1O (some centres not stated),inactive: > 50 µM
17,COc1cccc2c1OC1Sc3ccccc3-c3nn(-c4ccccc4)c-2c31 (configuration not stated),inactive: > 100 µM
18,CC(=O)c1ccc2c(c1)CC1(C2)Cc2ccccc2C1=O (configuration not stated),inactive: 48.9 µM
19,CN(/N=C\c1ccc2ccccc2c1)C1=NCCN1,inactive: 17.6 µM
20,CCCCN(C)C(=O)C1=C(C)NC(C)=C(C(=O)N(C)CCCC)C1,inactive: > 100 µM
21,C/C(=N\N=C1/C(=O)OC(c2ccccc2)=C1C(=O)c1ccccc1)c1ccc([N+](=O)[O-])cc1,inactive: 91 µM
22,CNS(=O)(=O)NN(C)S(=O)(=O)c1ccc(C)cc1,inactive: > 100 µM
23,COc1ccc2oc(=O)c(-c3nc4ccccc4s3)cc2c1,inactive: 21.1 µM

row,Compound,GI50
1,Cc1ccc(SCC(CF)OCn2cc(F)c(=O)[nH]c2=O)cc1 (configuration not stated),inactive: > 100 µM
2,O=C(O)c1c2c(cc3c(=O)c4ccccc4[nH]c13)CCCC2,inactive: > 100 µM
3,CCOC(=O)c1nc2cc(C(F)(F)F)ccc2nc1Oc1ccc(OC)cc1,inactive: > 100 µM
4,CCCCC(C(=O)C(=O)Nc1ccc(C)cc1C)C(=O)C(C)C (configuration not stated),inactive: > 100 µM
5,CCOC(=O)N1[C@@H]2CCC[C@@H]2C(=O)[C@@H]2CCC[C@@H]21,inactive: > 100 µM
6,O=C1C2=C(c3ccccc31)C(c1ccccc1)NC(S)=N2 (configuration not stated),inactive: 50.7 µM
7,Nc1ccccc1SC(/C=C/NNC1=NN=C(c2ccccc2)C(c2ccccc2)N1)c1ccccc1 (configuration not stated),inactive: 16.2 µM
8,C=CCNC1=C(C(=O)OCC)C(=O)CO1,inactive: > 100 µM
9,O=C1C(=Cc2ccc(F)cc2)C(=O)c2ccccc21,inactive: > 100 µM
10,C1=N\CCNCC/N=C/c2ccccc2OCc2cccc(n2)COc2ccccc2/1,inactive: 63.4 µM
11,CO/C1=C\C(C)=C\C(C)C(O)C(C)C/C(C)=C/C=C/C(OC)C(C(C)C(O)C(C)C2(O)CC(O)C(C)C(C(C)C)O2)OC1=O (configuration not stated),active: 0.00127 µM
12,CC(C)C(Sc1nc(-c2ccccc2)c(-c2ccccc2)[nH]1)C(=O)NNC(=S)Nc1ccccc1 (configuration not stated),inactive: 23.3 µM
13,Cc1cccc(/C=C2/C(=O)Nc3ccccc32)n1,inactive: 13.7 µM
14,CC(=O)O[C@H]1CC[C@@]2(C)C(=CC[C@@H]3[C@@H]2CC[C@]2(C)c4nc(N)c(C#N)cc4C[C@@H]32)C1,inactive: 18.2 µM
15,COc1cc(/C=C2/CCS(=O)(=O)c3ccc(C)cc3C2=O)cc(OC)c1OC,inactive: 3.83 µM
16,CC(C#N)N(CCc1ccccc1)C(=O)c1ccccc1 (configuration not stated),inactive: > 100 µM
17,CS(C)(=O)=N/C=C\C(=O)C(Cl)(Cl)Cl,inactive: > 100 µM
18,N=C(N)NC1C(O)C(O)C(O)C(NC(=N)N)C1O (configuration not stated),inactive: > 100 µM
19,CCCCCCC1CC(=O)C1(Cl)Cl (configuration not stated),inactive: 58.7 µM
20,c1c(N2CCOCC2)s[s+]c1N1CCOCC1,inactive: > 100 µM
21,COC(=O)[C@@H]1[C@H]2CC[C@]3(C)[C@@H](OC(C)=O)CC[C@H]3[C@@H]2CC[C@H]1C(C)=O,inactive: > 100 µM
22,O=C1c2ccccc2-c2c1c(-c1ccccc1)c1n2C2(C(=O)c3ccccc3C2=O)C2C(=O)N(c3ccccc3)C(=O)C12 (configuration not stated),inactive: 16.1 µM
23,Cc1ccc(S(=O)(=O)OC(COC(=O)c2ccccc2)C(OS(=O)(=O)c2ccc(C)cc2)C(OS(=O)(=O)c2ccc(C)cc2)C(COC(=O)c2ccccc2)OS(=O)(=O)c2ccc(C)cc2)cc1 (configuration not stated),inactive: > 100 µM

row,Compound,GI50
1,O=C(CCC(=O)OCC1OC(O)(CC2OC(CO)C(O)C(O)C2O)C(O)C1O)OCc1ccccc1 (configuration not stated),inactive: > 100 µM
2,CN(/N=C\c1ccnc2ccccc12)c1ccccc1,inactive: 39.2 µM
3,CC(C)=C[C@H]1CCC2(OCCO2)[C@]1(C)COCc1ccccc1,inactive: 87.9 µM
4,CNC(C)C(O)c1ccc2oc3cc(=O)c4ccccc4c-3nc2c1 (configuration not stated),inactive: 13.8 µM
5,Nc1nc(Cl)cc(NCC2(CO)CC(Cc3ccccc3)C2)n1 (configuration not stated),inactive: > 69.3 µM
6,NC(Cc1ccc(O)cn1)C(=O)O (configuration not stated),inactive: > 100 µM
7,CC(C)C(OC(=O)c1cc(NC(=S)c2ccccc2)ccc1Cl)C(C)C,inactive: 32.9 µM
8,O=C1/C(=C/c2cccs2)N=C(c2ccccc2)N1C1Nc2cc3c(cc2S1)NC(N1C(=O)/C(=C/c2cccs2)N=C1c1ccccc1)S3 (configuration not stated),inactive: 45.4 µM
9,O=C(OCc1ccccc1)C(Cc1ccc(OCc2ccccc2)cn1)NC(=O)C(F)(F)F (configuration not stated),inactive: > 100 µM
10,COc1ccc(N2C(=O)/C(=C/c3ccc(N(CCC#N)CCC#N)cc3C)N=C2c2cc([N+](=O)[O-])ccc2Cl)cc1,inactive: 6.44 µM
11,COC(=O)C1(OC(=O)Sc2ccccc2)CCN(C)CC1,inactive: > 100 µM
12,Cn1cc[n+](-c2cc(=O)n(C)c(=O)[n-]2)c1,inactive: > 100 µM
13,O=c1cc(-c2ccc(Cl)cc2)oc2cc(OCCCOc3ccc4c(=O)cc(-c5ccc(Cl)cc5)oc4c3)ccc12,inactive: > 100 µM
14,C[Si](C)(C)C#CCOC=C1CC1,inactive: > 100 µM
15,O=c1[nH]nc(Cc2ccccc2)n1CCCl,inactive: > 100 µM
16,CCOC(=O)C1C(c2ccc(OC)cc2)c2c(nn(-c3ccccc3)c2O)CC1(O)OCC (configuration not stated),inactive: 44.4 µM
17,C=C(CN(C)C)C(=O)c1cc(C)ccc1C,inactive: 25.6 µM
18,CC(C)C1=CC23CCC4C(C)(C(=O)O)CCCC4(C)C2CC1C1C(=O)N(c2ccc(N4C(=O)C5C6CC7C8(C)CCCC(C)(C(=O)O)C8CCC7(C=C6C(C)C)C5C4=O)cc2)C(=O)C13 (configuration not stated),inactive: 5.09 µM
19,CC(=O)OC1[C@H]2c3cc4c(cc3CN3CCC(=C[C@@H]1O)C23)OCO4 (some centres not stated),inactive: > 100 µM
20,CCCCNc1nc(O)c2[nH]cnc2n1,inactive: > 100 µM
21,CCCCCCCCCCCCSC(=S)c1c(C)[nH]n(CCCCCCCCCCCC)c1=O,inactive: > 100 µM
22,Brc1ccc(/N=N/N2CCCCC2)cc1,inactive: > 100 µM
23,COc1cc(/C=C/c2ccc(C)cc2)cc(OC)c1OC,inactive: 4.85 µM

#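 Results reflect a 48-hour exposure of cells in 96-well plates to compound at five concentrations. GI50 marks 50% less growth.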 Active and inactive are the calls of the source. No stated cut-off is given here; in the data, active = GI50 up to about 1.1 µM and inactive = higher.
